{"source": "the supplement of paper PMC3334620", "note": "In all, about 33,000 sequences were measured (“E-score (-0.5 to 0.5)”: median about -0.011, highest 2% from about 0.28 on). This is one part of the list."}
{"biological_target": "T1, Gcr1 (UniProt P07261)", "T1 sequence": "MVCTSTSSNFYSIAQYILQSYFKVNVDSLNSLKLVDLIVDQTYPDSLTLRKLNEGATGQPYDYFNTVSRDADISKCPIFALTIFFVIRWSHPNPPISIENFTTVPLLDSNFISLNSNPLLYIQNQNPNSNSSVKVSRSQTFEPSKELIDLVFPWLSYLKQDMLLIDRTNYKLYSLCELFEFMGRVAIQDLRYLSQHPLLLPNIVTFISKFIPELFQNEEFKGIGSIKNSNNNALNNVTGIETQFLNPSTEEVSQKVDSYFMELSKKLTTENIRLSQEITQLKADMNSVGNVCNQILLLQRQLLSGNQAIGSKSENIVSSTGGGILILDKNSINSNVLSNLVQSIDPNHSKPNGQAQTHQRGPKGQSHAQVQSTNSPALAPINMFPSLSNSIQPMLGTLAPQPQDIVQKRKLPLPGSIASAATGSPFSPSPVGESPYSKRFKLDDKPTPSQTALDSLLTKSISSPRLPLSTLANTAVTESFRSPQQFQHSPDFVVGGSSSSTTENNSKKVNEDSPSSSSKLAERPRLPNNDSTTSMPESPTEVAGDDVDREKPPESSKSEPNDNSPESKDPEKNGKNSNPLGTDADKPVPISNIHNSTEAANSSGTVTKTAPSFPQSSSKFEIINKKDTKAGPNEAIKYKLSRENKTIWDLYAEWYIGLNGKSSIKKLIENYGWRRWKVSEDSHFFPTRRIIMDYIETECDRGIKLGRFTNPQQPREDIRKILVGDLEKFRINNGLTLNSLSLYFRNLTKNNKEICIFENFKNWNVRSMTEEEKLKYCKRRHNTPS", "experiment": "PBM E-score (8-mer binding enrichment) (E-score (-0.5 to 0.5)); higher = stronger / more preferred TF binding; most listed sequences are background and not binding sites", "conditions": "protein concentration: 100 nM; construct: GST-full length", "in_short": "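E-scores (a modified Wilcoxon-Mann-Whitney statistic) were assigned by the Universal PBM Analysis Suite to every ungapped eight-base word pooled with its reverse complement. The input came from universal all-10-mer Agilent arrays made double-stranded by primer extension and probed with GST-tagged yeast transcription factors at about 100-200 nM. Fluorescent anti-GST detected bound protein, and masliner normalised the scans.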"}
{"sequence": "GGTCCACA", "PBM E-score": -0.201}
{"sequence": "CTCTGAGC", "PBM E-score": -0.0198}
{"sequence": "AAAGGACC", "PBM E-score": -0.0758}
{"sequence": "AATAGCGC", "PBM E-score": 0.0793}
{"sequence": "GCCTCGCC", "PBM E-score": -0.133}
{"sequence": "ATGTCGAC", "PBM E-score": -0.0503}
{"sequence": "AAATGAGG", "PBM E-score": -0.0851}
{"sequence": "AGGCTACT", "PBM E-score": -0.0491}
{"sequence": "ACGGTCGC", "PBM E-score": -0.222}
{"sequence": "GATTCACC", "PBM E-score": 0.135}
{"sequence": "GTCGACCA", "PBM E-score": -0.34}
{"sequence": "AGCGCACC", "PBM E-score": 0.00658}
{"sequence": "AGGGTGTA", "PBM E-score": 0.0433}
{"sequence": "CTCGTCCA", "PBM E-score": 0.0183}
{"sequence": "AAGATCGA", "PBM E-score": -0.0911}
{"sequence": "GTCATGAA", "PBM E-score": -0.0343}
{"sequence": "AATGTGAT", "PBM E-score": -0.0732}
{"sequence": "CTGTCATC", "PBM E-score": 0.00806}
{"sequence": "CATTAAGC", "PBM E-score": 0.00637}
{"sequence": "TCGACGCA", "PBM E-score": -0.17}
{"sequence": "ACCTTTAA", "PBM E-score": 0.0454}
{"sequence": "AAACTCCG", "PBM E-score": -0.0765}
{"sequence": "GTATATAC", "PBM E-score": -0.108}
{"sequence": "CACTAGCG", "PBM E-score": -0.0167}
{"sequence": "CCAGGGTA", "PBM E-score": -0.22}
{"sequence": "ACGAGCAT", "PBM E-score": 0.00589}
{"sequence": "CCGTACTA", "PBM E-score": -0.174}
{"sequence": "GATTACTA", "PBM E-score": -0.0812}
{"sequence": "AAACCCCG", "PBM E-score": -0.0587}
{"sequence": "GCGGGCTA", "PBM E-score": -0.0536}
{"sequence": "GTCACCAC", "PBM E-score": 0.0885}
{"sequence": "ACCAACGA", "PBM E-score": 0.0176}
{"sequence": "CAAGGTCC", "PBM E-score": 0.0206}
{"sequence": "AGCTTTCG", "PBM E-score": -0.1}
{"sequence": "GCACAAGA", "PBM E-score": 0.122}
{"sequence": "TCCCGAGA", "PBM E-score": -0.0262}
{"sequence": "ATTCTCGG", "PBM E-score": 0.123}
{"sequence": "CAAGCCTA", "PBM E-score": -0.148}
{"sequence": "CTTTGGAC", "PBM E-score": -0.147}
{"sequence": "TATGAGGA", "PBM E-score": 0.00369}
{"sequence": "AGTTCGGC", "PBM E-score": 0.0244}
{"sequence": "TACATTGA", "PBM E-score": 0.00981}
{"sequence": "AGGAACAA", "PBM E-score": -0.0764}
{"sequence": "ACTAAGAA", "PBM E-score": 0.191}
{"sequence": "ACGACACG", "PBM E-score": -0.163}
{"sequence": "AGACTTAG", "PBM E-score": -0.0811}
{"sequence": "GTAACCCA", "PBM E-score": 0.0887}
{"sequence": "ACGTTACG", "PBM E-score": 0.0478}
{"sequence": "TATCCCAA", "PBM E-score": 0.0284}
{"sequence": "ATCTATCC", "PBM E-score": 0.0419}
{"sequence": "AGGTATCA", "PBM E-score": 0.0276}
{"sequence": "CATATCAC", "PBM E-score": -0.00769}
{"sequence": "ATTGTAGC", "PBM E-score": 0.0431}
{"sequence": "GGCCATAC", "PBM E-score": -0.166}
{"sequence": "ACGAGTCC", "PBM E-score": -0.016}
{"sequence": "GGACCAAA", "PBM E-score": 0.0825}
{"sequence": "ACGCTTAC", "PBM E-score": -0.104}
{"sequence": "CCTAGTTA", "PBM E-score": 0.0265}
{"sequence": "CATCGTAG", "PBM E-score": -0.35}
{"sequence": "CCCACTCA", "PBM E-score": 0.104}
{"sequence": "GATGAATC", "PBM E-score": -0.0514}
{"sequence": "ACTCTAAC", "PBM E-score": 0.00366}
{"sequence": "CCGAACAG", "PBM E-score": -0.0664}
{"sequence": "CGTGTAGC", "PBM E-score": -0.0292}
{"sequence": "ACAAAATA", "PBM E-score": 0.233}
{"sequence": "CGATTCCC", "PBM E-score": 0.0331}
{"sequence": "AGTGAGTG", "PBM E-score": -0.0793}
{"sequence": "AGTCGCAC", "PBM E-score": -0.155}
{"sequence": "AATTCTTG", "PBM E-score": 0.154}
{"sequence": "CTCGCGGC", "PBM E-score": -0.0235}
{"sequence": "CTATACTC", "PBM E-score": -0.14}
{"sequence": "AGCCGCCC", "PBM E-score": 0.0768}
{"sequence": "CGCTGAAC", "PBM E-score": 0.0885}
{"sequence": "GCCAGTGA", "PBM E-score": -0.00473}
{"sequence": "CAACCCGC", "PBM E-score": -0.0249}
{"sequence": "CGCCCAAA", "PBM E-score": 0.157}
{"sequence": "ACTCTCCA", "PBM E-score": -0.0972}
{"sequence": "ATCCCTTC", "PBM E-score": -0.161}
{"sequence": "AACGACGC", "PBM E-score": 0.13}
{"sequence": "GACAGCCA", "PBM E-score": 0.0445}
{"sequence": "TCACAGAA", "PBM E-score": -0.0239}
{"sequence": "CTTGAACC", "PBM E-score": -0.363}
{"sequence": "AATATATT", "PBM E-score": 0.132}
{"sequence": "CACTTACG", "PBM E-score": -0.0106}
{"sequence": "AACGCCTG", "PBM E-score": -0.0154}
{"sequence": "ACATCACC", "PBM E-score": -0.0972}
